Consider 85 compounds from ChEMBL document CHEMBL4888484, “Replenishing the malaria drug discovery pipeline: Screening and hit evaluation of the MMV Hit Generation Library 1 (HGL1) against asexual blood stage Plasmodium falciparum ,using a nano luciferase reporter read-out” (2022).

Structures are written as SMILES. Hit rate of the full screen: of about 150,000 compounds, about 540 (0.36%) showed an effect of 50% or more. This is one part of the list.

Broadly, the % Inhibition is the drop in the measured response relative to a control, in per cent.

In this assay the test system is Plasmodium falciparum. The assay can be described thus: Primary screen in NF54 nanoGlo assay, in single point, at 2uM, 72h; a lower Z score goes with more inhibition. Format: functional, Erythrocyte. Particulars: timepoint 72 hour.
For `COC(=O)C1CCCC(C(=O)Nc2nnc(C(F)F)s2)C1` (stereo not given), the “% Inhibition” value worked out at 2% and the Z score was -0.24.
In the case of `CCN(CC1CCOCC1)C(=O)Nc1ccc2ccccc2c1`, the “% Inhibition” value is given as -3% and the Z score is recorded as 0.55.
For `CCc1nc(CCNS(=O)(=O)N2CCC[C@H](C)C2)sc1C`, the “% Inhibition” value is -8% and the Z score was found to be 0.99.
Take `CC1CCCCN1S(=O)(=O)C1CCS(=O)(=O)C1` (stereo not given): the “% Inhibition” value is recorded as -1% and the Z score was 0.07.
The matching figures for `CCCC1C(c2ccc(OC)cc2)NC(c2ccc(OC)cc2)CC1(O)C#Cc1ccccc1` (stereo not given): -5% and 0.74.
Taken in the same sequence, the figures for `COc1ccc(NC(=O)c2c(-c3ccccc3)nnc3ccc(C)cc23)cc1OC` were 1% and -0.15.
As to `CC1CCN(C[C@@H](O)CNc2nnc(C(F)(F)F)s2)CC1`, the “% Inhibition” value is listed as 31% and the Z score is recorded as -0.1.
In the case of `NC(=O)C1CCN(C(=O)Cc2ccc(-c3ccccc3)cc2)CC1`, the “% Inhibition” value was -4% and the Z score turned out to be 0.36.
Consider `CCCC[C@@]1(O)COC2(CN(C(=O)c3ccnn3CC)C2)C1`, for which the “% Inhibition” value came to 0% and the Z score is reported as -0.03.
Turning to `CC1CCCCN1C(=O)CN1CCN(C(=O)C(C)n2ccnc2-c2ccccc2)CC1` (stereo not given), the “% Inhibition” value is reported as -5% and the Z score is on record as 0.47.
On to `CCc1c(C(=O)N(C)Cc2nc(C)cs2)c(=O)cc(C)n1C[C@H]1CCCN1CC`, for which the “% Inhibition” value was -2% and the Z score stood at 0.22.
With `Cn1c2c(cc(C(=O)NC[C@@H]3COc4ccccc4C3)c1=O)CCCC2`, the “% Inhibition” value is -3% and the Z score came to 0.48.
For `COc1cccc(C(=O)N2CCN(c3nnc(C(C)C)o3)CC2)c1`, the “% Inhibition” value was -5% and the Z score came out at 0.62.
Turning to `N#Cc1ccc([C@H]2CC(O)=Nc3cccc4c3c2cn4Cc2cccc(F)c2)cc1`, the “% Inhibition” value is -11% and the Z score is reported as 1.41.
Turning to `CCCC1CC1NC(=O)N1CC(c2ccccc2)C2COCCC21` (stereo not given), the “% Inhibition” value is -1% and the Z score is recorded as 0.07.
As to `Cc1ccc(NC(=O)C2CCN(S(=O)(=O)c3ccc4c(c3)C[C@H](C)N4C(=O)C3CCC3)CC2)cc1`, the “% Inhibition” value is recorded as -14% and the Z score came out at 2.25.
The matching figures for `O=C(c1ccccc1-n1ccnn1)N1CCn2c1nc1ccccc12`: -6% and 0.85.
`COc1ccc(-n2c(=O)[nH]c3nc(N4CCN(c5ccccn5)CC4)ncc3c2=O)cc1`: the “% Inhibition” value was determined as 28% and the Z score is listed as -3.63.
The matching figures for `COc1ccc(C)cc1NC(=O)c1coc(NC(=O)Cc2c(C)noc2C)n1`: 0% and 0.06.
For the compound `Clc1cccc(OC2CN(C[C@H]3CCCO3)C2)c1`, the “% Inhibition” value was found to be 6% and the Z score was -1.2.
As to `Cc1cc(O)ccc1NC(=O)Nc1cccnn1`, the “% Inhibition” value is -11% and the Z score came out at 1.57.
For the compound `COc1cc(F)ccc1[C@H](C(=O)O)N(C)CCO`, the “% Inhibition” value is given as -24% and the Z score is listed as 2.38.
With `CCN(CC(=O)NCC1CCC1)C1CN(C(=O)OC(C)(C)C)C1`, the “% Inhibition” value was -4% and the Z score amounted to 0.57.
As for `CCn1ccc(C(=O)N2CC(C)(C)[C@H]2c2ccccc2)n1`, the “% Inhibition” value is reported as -2% and the Z score was determined as 0.28.
The matching figures for `O=C(Cn1cncc(C(=O)NC2CCCC2)c1=O)Nc1ccc(F)cc1F`: -4% and 0.59.
With `O=C1C2C3C=CC(C3=C3CCCC3)C2C(=O)N1c1cccc(C(F)(F)F)c1` (stereo not given), the “% Inhibition” value was -18% and the Z score is 1.95.
In the case of `Cc1ccc(N2CCN(C(=O)c3cc(-c4cccc5ccccc45)[nH]n3)CC2)cc1`, the “% Inhibition” value is -7% and the Z score is given as 1.05.
With `Cn1nccc1C1CC2CCC(C1)N2C(=O)CS(C)(=O)=O` (stereo not given), the “% Inhibition” value is -23% and the Z score was found to be 2.12.
For `COc1cc(C(=O)Nc2ccc(-n3cc(Br)cn3)nc2)cc2c1OCCCO2`, the “% Inhibition” value is given as 2% and the Z score is reported as -0.3.
`Cn1cncc1CN1CCCC[C@H]1c1nc2ccccc2[nH]1`: the “% Inhibition” value is reported as -1% and the Z score is 0.19.
Turning to `Cc1cc([C@@](C)(O)CNC(=O)c2ccc(N3CCCC3)nc2)c(C)o1`, the “% Inhibition” value was -5% and the Z score turned out to be 0.46.
As to `Cc1nccc(O[C@H]2CCN(C(=O)CC(F)(F)F)C2)n1`, the “% Inhibition” value is -12% and the Z score came out at 1.83.
Regarding `CCN(CCO)S(=O)(=O)c1cc(C)sc1C`, the “% Inhibition” value was -8% and the Z score is 1.16.
`CCCCn1c(N)c(N(C(=O)c2ccc(=O)n(C)n2)C2CCCC2)c(=O)[nH]c1=O`: the “% Inhibition” value was -11% and the Z score turned out to be 1.47.
With `CC(=O)N(Cc1nn(C)c2c1CN(Cc1ccc(OCC(N)=O)cc1)CC2)c1ccccc1`, the “% Inhibition” value is on record as -15% and the Z score was 2.59.
On to `O=C(COc1ccccc1)c1ccc2c(c1)N(Cc1nc(C(=O)NCC3CC3)co1)C(=O)CO2`, for which the “% Inhibition” value is -7% and the Z score is listed as 1.1.
`Cc1nc(C(=O)NCc2ccc(S(=O)(=O)N3CCOCC3)s2)c[nH]1`: the “% Inhibition” value is reported as 37% and the Z score was -3.71.
For the compound `CC(O)CC(CNC(C)C(C)(C)C)c1ccccc1` (stereo not given), the “% Inhibition” value is -5% and the Z score worked out at 0.59.
The matching figures for `Cc1noc(CN[C@H]2CCCc3cc(F)ccc32)n1`: -3% and 0.49.
On to `CCC[C@@H](C#N)NS(=O)(=O)c1ccc(C(=O)OC)nc1`, for which the “% Inhibition” value is -7% and the Z score is given as 1.17.
Regarding `C#CCNC(=O)NCc1ccccc1Br`, the “% Inhibition” value is on record as -5% and the Z score turned out to be 0.52.
Consider `O=C(O)CCN1CC[C@H](OCCCc2ccccc2)C1`, for which the “% Inhibition” value was -16% and the Z score was 2.35.
On to `O=C(CCn1ccc2cc(S(=O)(=O)N3CCCCC3)ccc21)N1CCN(c2ccccc2F)CC1`, for which the “% Inhibition” value came to 33% and the Z score is listed as -0.89.
Regarding `Cc1noc(CCNC(=O)c2cccc(Br)c2C)n1`, the “% Inhibition” value was -5% and the Z score turned out to be 0.85.
Taken in the same sequence, the figures for `O=C(COc1cccc(N2C(=O)c3cc(Cl)c(Cl)cc3C2=O)c1)c1ccc(F)cc1` were -6% and 1.12.
With `CC[C@@H](c1cccnc1)N(C)C(=O)NCc1cncn1CC`, the “% Inhibition” value was determined as 4% and the Z score is -0.45.
As to `C[C@@H](Cc1csc2ccccc12)NC(=O)c1ccc(F)c(F)c1`, the “% Inhibition” value is recorded as -6% and the Z score turned out to be 0.74.
With `CCCN(C(=O)[C@H]1CCCN(C2CCN(Cc3ccncc3)CC2)C1)C1CCCC1`, the “% Inhibition” value is reported as -9% and the Z score is on record as 1.74.
As for `Nc1nc(CN[C@H]2CCC(=O)N(CC3CC3)CC2)cs1`, the “% Inhibition” value is listed as 6% and the Z score is reported as -1.06.
For `CCN1CCN(C(=O)Nc2cc(Cl)c3c(c2)NC(=O)CO3)[C@@H](C)C1=O`, the “% Inhibition” value is reported as -5% and the Z score was 0.94.
On to `CN(C(=O)c1c2n(c(=O)n1C)CCCC2)c1c(F)cccc1F`, for which the “% Inhibition” value is -10% and the Z score worked out at 1.87.
As for `Cc1nn(C(C)(C)C)c(C)c1C(=O)Nc1ccc(Nc2ccccc2)cc1`, the “% Inhibition” value is on record as -4% and the Z score is on record as 0.5.
Take `O=C(c1cccc(-n2cnnn2)c1)N1CCN(CCn2ncccc2=O)CC1`: the “% Inhibition” value is on record as -5% and the Z score amounted to 0.67.
As for `O=C(NCCn1ccnc1-c1ncccn1)c1ccc(Br)o1`, the “% Inhibition” value was -12% and the Z score was found to be 1.48.
As to `CC[C@H](C)NC(=O)c1ccc(NS(C)(=O)=O)c(C)c1`, the “% Inhibition” value is given as -11% and the Z score worked out at 1.16.
For the compound `Cc1cccc(C(=O)NCC[C@H]2CN(C(C)C)CCO2)c1Cl`, the “% Inhibition” value is recorded as -17% and the Z score stood at 2.55.
On to `CC(NC(=O)C1CCCCC(=O)N1)C(C)C1CCCCC1` (stereo not given), for which the “% Inhibition” value was -8% and the Z score came to 0.91.
On to `COCCn1ccc2c(NC(=O)CC[C@@H]3NC(=O)c4ccccc4N=C3O)cccc21`, for which the “% Inhibition” value is given as -11% and the Z score is given as 1.66.
On to `CC(C)CCc1nc(N2CCN(S(=O)(=O)Cc3ccccc3)CC2)c2cnn(-c3cccc(Cl)c3)c2n1`, for which the “% Inhibition” value is given as 0% and the Z score was 0.04.
Take `CN(Cc1ccc(Oc2ccccc2)o1)Cc1nncn1C`: the “% Inhibition” value was -10% and the Z score worked out at 2.01.
Taken in the same sequence, the figures for `CC[C@@H](NS(=O)(=O)c1c(C)nn(C)c1C)c1ccccn1` were -7% and 0.71.
As to `COc1ncnc2c1c(Br)cn2C`, the “% Inhibition” value is given as 0% and the Z score was 0.05.
The matching figures for `Cn1nc2c(c1CNC(=O)[C@H]1CC1(C)C)CCCC2`: -8% and 0.99.
Taken in the same sequence, the figures for `c1nnc(C2CCN(c3nnc(C4CC4)o3)CC2)n1C1CC1` were -4% and 0.67.
On to `c1ccc(CCNc2ncccc2-c2nc(-c3ccccc3)no2)cc1`, for which the “% Inhibition” value is given as 22% and the Z score is on record as -2.55.
For the compound `CCCCN1CCc2ccc(NC(=O)C(C)C)cc21`, the “% Inhibition” value is recorded as -9% and the Z score is recorded as 0.93.
For the compound `CCN(CC)CC(=O)NCC1CCCN(C)C1c1cccs1` (stereo not given), the “% Inhibition” value was -2% and the Z score was 0.24.
As to `COc1ccc(Cl)cc1N1CCC(N2C(=O)[C@@H]3CCCN3C2=O)C1` (stereo not given in full), the “% Inhibition” value is listed as 2% and the Z score is recorded as -0.32.
With `COCCOCCN(Cc1ccccc1)c1cc(C)nc2nc(C(F)(F)F)nn12`, the “% Inhibition” value is 11% and the Z score is listed as -1.22.
Turning to `Cc1nc(C2CCNCC2)cc(N(C)Cc2ccsc2)n1`, the “% Inhibition” value was -3% and the Z score is reported as 0.36.
Regarding `C#CCn1ccnc1CNc1nc(C(C)C)no1`, the “% Inhibition” value worked out at 1% and the Z score is listed as -0.08.
The matching figures for `CS(=O)(=O)N1CCC[C@H](CNC(=O)CC2CCCC2)C1`: -3% and 0.31.
For `Cc1nn(C)cc1C(C)NC(=O)C1CCCN1Cc1ccc(F)cc1` (stereo not given), the “% Inhibition” value is 0% and the Z score is on record as -0.02.
Take `O=C(Cn1cnc2ccccc21)NCc1cccc(Oc2ccc(F)cc2)c1`: the “% Inhibition” value is listed as 2% and the Z score is on record as -0.39.
`NC(=O)c1cccnc1NCCc1nc2ccccc2[nH]1`: the “% Inhibition” value was -2% and the Z score amounted to 0.32.
Consider `CC(CC(F)(F)F)C(=O)N1C[C@H]2COC[C@H]2C1` (stereo not given in full), for which the “% Inhibition” value amounted to 3% and the Z score was -0.31.
Taken in the same sequence, the figures for `CC(C)NC(=O)CCN1CC[C@@]2(CCCN(Cc3ccc(C(C)C)cc3)C2=O)C1` were 7% and -1.11.
The matching figures for `CC(C)(C)C1CC(C(=O)NCc2csc(=O)[nH]2)C1` (stereo not given): -10% and 1.7.
Regarding `Cc1sc(-c2cc(C(F)(F)F)on2)cc1S(=O)(=O)Nc1ccc(F)cc1`, the “% Inhibition” value is listed as -1% and the Z score came out at 0.23.
As to `COc1ccc(NC(=O)CCNS(=O)(=O)c2ccc3c(c2)c(=O)n(C)c(=O)n3C)cc1OC`, the “% Inhibition” value is recorded as -5% and the Z score stood at 0.81.
`O=C1CO[C@H]2CCN(Cc3cccc4ccoc34)C[C@@H]2N1`: the “% Inhibition” value is recorded as -1% and the Z score amounted to 0.24.
Consider `Cc1ccc(-c2noc(N3CCN4C(=O)C(=O)NC[C@H]4C3)n2)cc1`, for which the “% Inhibition” value is -17% and the Z score was determined as 2.26.
Turning to `O=S(=O)(c1ccccc1)N1C2C=CC(C2)C1(C(F)(F)F)C(F)(F)F` (stereo not given), the “% Inhibition” value is on record as -9% and the Z score turned out to be 0.93.
Take `Cc1nnc(O)nc1Nc1ccc(Cl)c(Cl)c1`: the “% Inhibition” value is -13% and the Z score turned out to be 1.18.
Consider `O=C(c1cccc(-c2cn[nH]c2)c1)N1CCN(c2ccccn2)CC1`, for which the “% Inhibition” value is recorded as -6% and the Z score came to 0.97.
